More than one record can exist for a structure, and the calls need not agree.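 Plates (96-well) were seeded with cells, treated with compound at one concentration, and incubated for 48 hours before percent growth was determined.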 Certain results were filed several times, with different values. This is not the full list of results. The source may hold further records. The calls were made as follows: active = growth percent below 10; inactive = the rest. This drug was run again and again over the years, at its own concentration, as given; each value is one run. Additions like (4×) give the number of equal values in this list.
Legend:
[1] = system: NCI-H322M lung; assay: NCI-60 one-dose screen, 48 h (100 = growth as untreated, 0 = no growth, -100 = all killed); settings: 25 µM
[2] = system: HOP-62 NSCLC; assay: as above; settings: 0.25 µM

`COc1cccc2c1C(=O)c1c(O)c3c(c(O)c1C2=O)C[C@@](O)(C(=O)CO)C[C@@H]3OC1CC(N)C(O)C(C)O1` (stereo not given in full) was tested, and the growth ([1]; runs of 1995) was “active: -16.7 (2×), -23, -4.13, -19.8, 1.06, -36.4, -25 (2×), -58.1, -34.2, -6.14, -39.7, -3.41, -26.2, -20.4, -9.33, -18.2, -18.4, -26.3, -34.9, -4.65, -56.1, -38.4, -41.5, -39, -28.7, -24.8, -40.3, -8.81, -35, -51.9, -48.1, -29, -28.8, 8.29, -35.3, -37.3, -45.1, -7.82%”, the growth ([1]; runs of 1996) was “active: -32.8, -33.6, -36.2, 4.31, -35, -18.4, 2.45, -24.5, 0.627, 2.89, -31.2, -31, 7.66, -20.2, -24.6, -25.5, -2.72, -15.9, -14.9, -45.3, -49.6, -2.5, 0.839, -23.9, -5.54, -23, -12.7, -41.5, -30, -20 (2×), -8.13, -39.3, -17.2, -22, -37.7, -31.9, -10, -18.8, -6.94, -11.9, -20.4, -21.7, -46.4, -33.9, -44.6, -11.7, -17.4, -25.1, -16.5, -9.17, -60.5, -49.9, -22.2% and inactive: 10.6, 94.3, 45.4, 12.5%” and the growth ([1]; runs of 1997) was “active: -14.6, -30.7, -39.2, -40.3, -15.7, -50.7, -10.6, -36.9, -23.5, -26.7, -19, -32.6, -32.3, -20.7, -32.4, -39.6, -31.1, 8.68, -33.5, -74.5, -34.9, -25.6, -35.7, -11.6, -29, -20.9, -26.9, -23.3 (2×), -17.4, -13.4, -33.2, -25.9, -33.3, -22, -3.21, -26.2, -21.6, 1.59, -21.4, -21.8, 1.24, -30.9, -3.46, -44.4% and inactive: 21.9%”. The growth ([1]; runs of 1998) was “active: -38.9, -31.7, -27.6, -35, -15.6, -0.554, -31.4, -25.2, -24.1, -45.9, -38.8, -47.4, -7.9, -41.8, -14.4, -29.8, -53.8, -63.3, -22.5, -57.6, -26.6, -3.43, -11, -41, -30.4% and inactive: 16.1%”, the growth ([1]; runs of 1999) was “active: -10.7, -42.6, -36.5, -18.2, -55, -100 (2×), 5.95, -90, -59.8, -67.3, -21.4, -89.8% and inactive: 16.9%” and the growth ([1]; runs of 2000) was “active: 3.05, -100, -58.6, -93.5%”. For the same molecule, the growth ([2]; runs of 2006) was “inactive: 38.3%, 36.5%”, the growth ([2]; runs of 2007) was “inactive: 12.4, 24.7, 23.3, 33.8, 10.9, 30.8, 36.1, 35.9, 36.9 (2×), 45.8, 48.6, 18.6, 45.2, 28.3, 34, 27.9, 40.6, 53.4, 39.7, 22.1, 30.4, 42.6, 74.9, 49.5, 43.9, 34.2, 38.4, 24.3, 26.3, 51.8 (2×), 14.2, 28.8, 28.1, 25, 33.7, 31.6% and active: -1.18%, 4.09%, -1.1%” and the growth ([2]; runs of 2008) was “inactive: 42.1, 27.6, 41.5 (2×), 39, 25.5, 24.2, 33.1, 17.1, 36.6, 40.2, 45.5, 48.8, 45.7, 52.6, 24.5, 35.3, 34.7, 37.8, 43.8, 32.9, 19.7 (2×), 25.2, 32.8, 23.8, 24.1, 12.2, 76.4, 29.8, 22.3, 51, 50, 53.6, 40.9, 42.9, 42.8, 57.8, 47.9, 25.3, 27.2, 18.7, 32.5, 11.4, 24.7% and active: 9.09, -0.999, -6.37, -5.92, 2.49, 8.31, 9.64, 4.31, -11.9, 8.51%”. The growth ([2]; runs of 2009) was “inactive: 25.1, 21.2 (2×), 35, 21.5, 19.2 (2×), 23.1 (2×), 34.9, 23.2, 26.6, 30.7 (2×), 36.1, 26.2, 27.8, 30.4 (2×), 18.6 (2×), 24.8 (2×), 26.8, 25.3 (2×), 29.4, 26.3 (2×), 27.1, 30.6, 22, 20.3, 14.1, 11, 45.1, 20.1, 21, 28.3, 16.2, 23.4 (2×), 35.7, 18.4 (2×), 16.5, 27.4, 33, 35.1, 40.1, 40.3, 36.7, 28.9, 29.3, 30.8, 22.7, 15.2, 13.7, 21.6, 20.4, 16.6, 13.4, 20.7, 21.1, 12.4% and active: 8.51, 0.227, -3.91, 6.54, 1.49, -4.75%”, the growth ([2]; runs of 2010) was “inactive: 29.9, 25.9, 30.8, 29.6, 28.1, 18.9, 31.4, 10.8, 14.5, 14.7, 34.5, 27, 30.9 (3×), 30.6 (2×), 32.8, 15 (2×), 31.1, 27.8, 11.8, 19, 19.1, 16.7, 19.6, 18.8, 21.1, 24.2, 26.7, 29.5, 15.5, 14.3, 25.3, 30.1, 12.8, 19.5, 13.1, 21.9, 33.5, 29, 22.9, 29.4, 31.5, 35.4, 34.7, 37.8, 40.4, 23.1, 34.9% and active: 0.116%” and the growth ([2]; runs of 2011) was “inactive: 22.1, 23.4, 25.4, 30, 25.3, 31.8, 19.6 (2×), 24.5, 27, 20.9, 32.5, 26.3, 20.4, 29.2 (3×), 22.7, 26.7, 30.5 (2×), 27.1, 38.3, 36.3, 44.8, 41.7, 42.9, 19.2 (2×), 42, 21.5, 12.8, 19, 19.4, 18, 18.4, 17.4, 17.3, 28, 33.6, 31.4, 25.2, 23.5, 25.1 (2×), 28.3, 31.9, 24.6, 31.2, 23.7, 18.8% and active: 6.44, 6.22, -4.04, 8.97, 9.64%”. For the same molecule, the growth ([2]; runs of 2012) was “inactive: 16.5, 13, 13.9, 27.2, 25.5, 33.4, 35.7 (2×), 24.5, 32.1, 25, 22.9, 21.3, 18.6, 27.9, 11.8, 27.7, 19.1, 33.2, 36.6, 41.3, 42.3, 40.2, 33.3 (2×), 14.8, 23.8, 23.1, 31.1, 29.9, 30.8, 25.4, 37.7 (3×), 35.2, 35.3, 44.7 (2×), 37.5, 36.7, 43.7 (2×), 43.2, 52.1, 30.5, 22.2, 34.6, 40, 33.6, 48.3, 41.9, 56.7, 37.8, 40.3, 37.9, 41, 48.2, 49.7, 46.8, 44.4, 46, 45.9, 53.7%”, the growth ([2]; runs of 2013) was “inactive: 19, 12.5, 16, 13.3, 10, 35.2, 38.4, 33.6, 37.3, 33.9, 34.3, 37.6, 45.7 (3×), 40.2 (2×), 42.6, 42.3, 41.4, 48.1, 55.6, 48.3, 44.1 (2×), 48.8, 46.3, 37.8, 46.6, 43, 57.6, 59.9, 50.2, 49.1, 39, 40.1, 30.1, 27.6, 43.1, 41.2, 34.2, 30, 26.9, 33.8, 46.2, 33.7, 33.1, 22.7, 22.5, 33, 34.6, 40.9, 48.9, 41.8, 39.4 (2×), 31.9, 45.8, 38.5, 35, 32.6, 33.5, 30.8, 25.8 (2×), 28, 16.3, 15, 21.5, 24.9, 40.3, 38.3, 16.6, 24.1, 19.9, 28.8, 36.2, 17.9% and active: -0.798%, -2.09%, 4.28%” and the growth ([2]; runs of 2014) was “inactive: 22.3, 34.7, 12, 19.5, 10.7 (2×), 15.9, 29.3 (2×), 18.9 (2×), 47.6, 26.5 (2×), 17.4 (2×), 17.1, 13.3, 37, 22.4, 25.1, 18 (2×), 33.7, 38.4, 26.6, 20.3 (2×), 30.5, 31.5, 29.4 (2×), 33.1, 38.6, 36.5, 40.3, 38.5, 41.5, 42, 36.6, 39.1, 26.2, 24.4, 22.9, 24, 21.3, 24.1, 10.3, 24.8, 12.1 (2×), 18.8, 19, 21.6, 21, 30.3, 26.3, 24.2, 25.4, 25, 18.3, 18.2, 16, 14.8 (2×), 14, 12.4, 16.8% and active: 9.7, 8.86, 4.41, 8.37, 5.64, 6.97, 3.74, 5.56, 9.78, 7.88%”.

Reference: PubChem BioAssay (NCI)
